Read-outs that look alike come from different tables or passages of the source.
What was measured:
[1] = tested on: isolated human blood vessels; conditions: methylamine 1-1,000 μM
[2] = tested on: isolated human blood vessels; assay: tissue or blood; conditions: read-out: apparent EC50s in all three human vessels, approximate range
rat thoracic aorta (TA) = conditions: 10 min, 1 mmol/L, mean ± SE
[3] = NE-precontracted (1 μM) TA of 1-yr old Wistar rats
[4] = NE-precontracted (1 μM) TA of 18-20 week old Sprague-Dawley rats

CN [methylamine]
adverse / toxic effects in isolated human blood vessels [1]: no observable adverse effects | adverse / toxic effects in isolated human blood vessels ([1]; listed as Methylamine): no observable long-lasting inhibitory or toxic effects | EC50 [2]: 200 to 300 µM | % Response, contraction (C), rat Old W thoracic aorta (rat thoracic aorta (TA); [3]): 3.0 ± 3.0% | % Response, relaxation (R), rat Old W thoracic aorta (rat thoracic aorta (TA); [3]): 2.4 ± 2.4% | % Response, contraction (C), rat Young SD thoracic aorta (rat thoracic aorta (TA); [4]): 12.5 ± 7.2% | % Response, relaxation (R), rat Young SD thoracic aorta (rat thoracic aorta (TA); [4]): 8.3 ± 8.3%

— US20050180956A1, “SSAO enzyme substrates for vasorelaxation, and methods of use thereof” (priority 2004, published 2005)
